Among all 310,000 compounds or so, about 14,000 (4.5%) showed an effect of 50% or more. The effect is printed as a negative number. The list shows a part of the results.
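Also: peak tail current of the secondary pulse compared with the same well before compound.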

Sequence of human ether-à-go-go-related gene (hERG) potassium channel (Q12809 whole entry, looked up): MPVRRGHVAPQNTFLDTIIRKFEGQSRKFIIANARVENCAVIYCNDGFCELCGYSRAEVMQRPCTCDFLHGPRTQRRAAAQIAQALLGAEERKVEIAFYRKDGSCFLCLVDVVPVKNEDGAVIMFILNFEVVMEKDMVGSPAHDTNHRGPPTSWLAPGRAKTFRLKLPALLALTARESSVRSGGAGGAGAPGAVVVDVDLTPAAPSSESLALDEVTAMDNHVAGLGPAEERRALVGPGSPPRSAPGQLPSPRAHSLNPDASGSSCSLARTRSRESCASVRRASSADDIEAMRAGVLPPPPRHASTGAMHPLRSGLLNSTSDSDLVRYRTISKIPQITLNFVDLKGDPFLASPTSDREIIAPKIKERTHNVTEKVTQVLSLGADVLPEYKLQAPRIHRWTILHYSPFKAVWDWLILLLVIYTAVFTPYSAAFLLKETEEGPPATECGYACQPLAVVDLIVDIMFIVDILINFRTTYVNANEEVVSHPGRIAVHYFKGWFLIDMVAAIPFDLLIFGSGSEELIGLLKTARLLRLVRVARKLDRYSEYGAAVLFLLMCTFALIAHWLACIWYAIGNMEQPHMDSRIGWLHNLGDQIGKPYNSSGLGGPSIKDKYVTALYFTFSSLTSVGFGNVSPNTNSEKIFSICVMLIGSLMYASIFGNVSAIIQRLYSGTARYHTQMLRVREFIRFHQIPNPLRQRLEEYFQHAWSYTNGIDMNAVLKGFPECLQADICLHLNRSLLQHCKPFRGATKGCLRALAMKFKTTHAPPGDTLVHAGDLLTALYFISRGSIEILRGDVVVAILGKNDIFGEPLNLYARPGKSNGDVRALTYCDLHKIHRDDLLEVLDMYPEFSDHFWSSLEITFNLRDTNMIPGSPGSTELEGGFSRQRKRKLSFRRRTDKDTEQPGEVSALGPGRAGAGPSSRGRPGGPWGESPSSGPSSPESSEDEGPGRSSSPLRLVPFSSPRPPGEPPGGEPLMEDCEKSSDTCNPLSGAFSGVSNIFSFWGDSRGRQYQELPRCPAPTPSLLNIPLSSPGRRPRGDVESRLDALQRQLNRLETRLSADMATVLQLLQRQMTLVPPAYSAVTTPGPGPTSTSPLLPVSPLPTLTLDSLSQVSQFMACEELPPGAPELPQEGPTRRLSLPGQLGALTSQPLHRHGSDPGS

The assay addresses human ether-à-go-go-related gene (hERG) potassium channel (human, UniProt Q12809). The assay is described as follows: primary screen, population patch clamp on CHO cells stably expressing hERG.
For the molecule `O=C(NCCCn1ccnc1)C(=O)c1c[nH]c2ccccc12`, the “hERG current change (%, negative = inhibition) at 10uM” value worked out at 9.1%. Take `Cc1noc(C)c1S(=O)(=O)N1CCC(C(=O)NC2CCN(Cc3ccccc3)CC2)CC1`: the “hERG current change (%, negative = inhibition) at 10uM” value is -25%. Turning to `CC(CCN1CCN=C1N(C)C)c1ccccc1` (centres unmarked), the “hERG current change (%, negative = inhibition) at 10uM” value is -15.3%.

For `O=C(c1ccc(F)cc1)C1CCN(C(=O)NC2CCCCC2)CC1`, the “hERG current change (%, negative = inhibition) at 10uM” value is recorded as -6.5%. For `Cn1c(SCc2nnc(-c3ccccc3Br)o2)nc2sc3c(c2c1=O)CCC3`, the “hERG current change (%, negative = inhibition) at 10uM” value was determined as 12.7%.

For `O=C(O)C(O)Cc1c[nH]c2ccccc12` (centres unmarked), the “hERG current change (%, negative = inhibition) at 10uM” value came to 15.1%. As for `CS(=O)(=O)N(CC(=O)NC1CC2CCC1C2)c1ccc(Oc2ccccc2)cc1` (centres unmarked), the “hERG current change (%, negative = inhibition) at 10uM” value is on record as 2.38%.

With `Cc1c(Cc2ccccc2)c(=O)oc2cc(OC(C)C(=O)NCC3CCC(C(=O)O)CC3)c(Cl)cc12` (centres unmarked), the “hERG current change (%, negative = inhibition) at 10uM” value worked out at 5.18%.

Regarding `COc1ccc(S(=O)(=O)N2CCC(C(=O)N3CCOCC3)CC2)cc1`, the “hERG current change (%, negative = inhibition) at 10uM” value is listed as 7.89%. On to `CC1c2nc3ccccc3n2C(CC(=O)NC2CC2)C(=O)N1Cc1ccccc1` (centres unmarked), for which the “hERG current change (%, negative = inhibition) at 10uM” value was 5.41%.

For `COc1ccc(C=O)cc1OS(=O)(=O)c1ccc(NC(C)=O)cc1`, the “hERG current change (%, negative = inhibition) at 10uM” value was 0.657%.

`CC(C)(Oc1ccc(Cl)cc1)C(=O)OCC(=O)N1CCCC1`: the “hERG current change (%, negative = inhibition) at 10uM” value is on record as 14.4%. For `COc1cccc(NC(=O)C(Sc2nnc(-c3ccncc3)n2-c2ccc(Cl)cc2)c2ccccc2)c1` (centres unmarked), the “hERG current change (%, negative = inhibition) at 10uM” value is reported as -10.3%. The figure for `CN1CCN(CCCCOc2cccc3ccccc23)CC1.Cl` is -27.4%. For `O=C(Oc1ccc(Br)cc1C(=S)N1CCOCC1)c1ccc([N+](=O)[O-])cc1[N+](=O)[O-]`, the “hERG current change (%, negative = inhibition) at 10uM” value was determined as 16.4%. `O=C(COc1ccc(S(=O)(=O)NCc2ccccc2)cc1Cl)NCC1CCCO1` (centres unmarked): the “hERG current change (%, negative = inhibition) at 10uM” value is recorded as -40.4%. In the case of `CC(C)=N/N=C1\NC(=O)C(C)S1` (centres unmarked), the “hERG current change (%, negative = inhibition) at 10uM” value amounted to 12.7%. `O=C(COC(=O)CCc1ccc(S(=O)(=O)N2CCCCC2)cc1)Nc1cccc2ccccc12`: the “hERG current change (%, negative = inhibition) at 10uM” value is -17.8%. Turning to `O=C(CS(=O)(=O)Cc1ccccc1)Nc1ccc(Cl)cn1`, the “hERG current change (%, negative = inhibition) at 10uM” value is listed as -11.9%. The figure for `COC(CCN(C)C)(c1ccccc1)c1ccccc1` is 6.01%. With `CCOC(=O)N1CCN(C(=O)CSc2nc(-c3cccc(C)c3)ns2)CC1`, the “hERG current change (%, negative = inhibition) at 10uM” value is on record as -38.8%. `COc1ccccc1-c1c(C)oc2c(CN3CCCCC3C)c(O)ccc2c1=O` (centres unmarked): the “hERG current change (%, negative = inhibition) at 10uM” value was -1.14%.

`Cn1c(SCC(=O)C(C)(C)C)nnc1-c1cccnc1`: the “hERG current change (%, negative = inhibition) at 10uM” value was -1.57%.

`CCC(=O)Nc1ccc(NC(=O)CSc2nc3cc4c(cc3cc2C)CCC4)cc1`: the “hERG current change (%, negative = inhibition) at 10uM” value was found to be 3.1%. With `CC(C)C[C@H]1CN=C(Nc2ccccc2)N1CC1CCC1`, the “hERG current change (%, negative = inhibition) at 10uM” value is given as -30.2%. In the case of `CCOC(=O)c1sc(NC(=O)CSc2nc3c(c(=O)n2-c2ccc(C)cc2)SCC3)c(C(=O)OCC)c1C`, the “hERG current change (%, negative = inhibition) at 10uM” value is 3.69%.

For `O=c1c(C=Nc2cccc(C(F)(F)F)c2)c[nH]n1-c1cccc(Cl)n1`, the “hERG current change (%, negative = inhibition) at 10uM” value is 5.39%. For the molecule `Cn1c(=O)[nH]c(=O)c2c1nc(N1CCCCCC1)n2CCSc1nc2ccccc2o1`, the “hERG current change (%, negative = inhibition) at 10uM” value turned out to be 3.31%. `O=c1ccc2ccc(Oc3ccc(Cl)cc3[N+](=O)[O-])cc2o1`: the “hERG current change (%, negative = inhibition) at 10uM” value is on record as -5.35%.

`Cc1nnc(N(Cc2ccco2)C(=O)c2ccno2)s1`: the “hERG current change (%, negative = inhibition) at 10uM” value is recorded as 1.77%.

For `CCN(CC)S(=O)(=O)c1ccc(C(=O)NC(=S)N(CCC#N)Cc2cccnc2)cc1`, the “hERG current change (%, negative = inhibition) at 10uM” value is listed as 12.6%. Turning to `CCn1c(SCC(=O)Nc2ccc3c(c2)OCO3)nnc1-c1cnccn1`, the “hERG current change (%, negative = inhibition) at 10uM” value is listed as -40.5%. Consider `NC(=O)C1CCN(C(=O)c2cnn(-c3ccccc3)c2NC(=O)c2ccco2)CC1`, for which the “hERG current change (%, negative = inhibition) at 10uM” value turned out to be 6.53%.

On to `O=C(COC(=O)Cc1cccc(C(F)(F)F)c1)Nc1ccccc1`, for which the “hERG current change (%, negative = inhibition) at 10uM” value was found to be 11.2%. Take `CCn1ncc(CN2CCN(Cc3ccc(OC)c(C)c3C)C(CCO)C2)c1C` (centres unmarked): the “hERG current change (%, negative = inhibition) at 10uM” value is reported as -19.9%. As to `O=C(Cn1cnc([N+](=O)[O-])c1)Nc1ccccc1C(F)(F)F`, the “hERG current change (%, negative = inhibition) at 10uM” value is on record as -14.3%. In the case of `O=C(CCN1C(=O)COc2ccccc21)NCCN1CCOCC1`, the “hERG current change (%, negative = inhibition) at 10uM” value was 13.5%. Take `COC(=O)Cn1c(=NC(=O)c2cc(OC)cc(OC)c2)sc2cc(OC)ccc21`: the “hERG current change (%, negative = inhibition) at 10uM” value is recorded as 21.9%. Consider `O=C(COC(=O)/C=C/c1cccc(C(F)(F)F)c1)NC(c1ccccc1)c1ccccc1`, for which the “hERG current change (%, negative = inhibition) at 10uM” value is recorded as -8.94%.

Take `CN(C(=O)COC(=O)c1cc(-c2ccccc2Cl)nc2ccccc12)C1CCS(=O)(=O)C1` (centres unmarked): the “hERG current change (%, negative = inhibition) at 10uM” value is reported as -30.9%. On to `O=C(CN1CCN(c2ccccc2)CC1)N1N=CCC1c1ccccc1` (centres unmarked), for which the “hERG current change (%, negative = inhibition) at 10uM” value is reported as 5.51%. As to `COC(=O)CCC/C=C1/SCC(NC(=O)c2ccccc2)C1=O` (centres unmarked), the “hERG current change (%, negative = inhibition) at 10uM” value is -5.45%.

With `CC(=O)c1ccc(OCC(=O)OCc2cc(-c3ccco3)on2)cc1`, the “hERG current change (%, negative = inhibition) at 10uM” value worked out at 6.87%. As for `COc1cccc(C(C(=O)NC2CCCC2)N(C(=O)c2ccco2)c2ccc(NC(C)=O)cc2)c1OC` (centres unmarked), the figure is -64%.

Values taken from PMC4336329 (PLoS ONE, 2015).
